Data: article PMC6416337
Where a chain is given by its changes, count along the chain named. Numbers in names are those of the source. These are yes or no findings as the source states them, for the method shown. For some of these results: Binding seen in cells or lysates may run through a third protein. Some entries that bind do so weakly or less than the wild type. For some of these results: Where a sequence is shown, tags or fusion partners need not be part of it. Each block holds one binder with its values, some of them ahead of it.

Assays:
[1] = target: T1, SOS2 (yeast two-hybrid with 14-3-3λ, vector not stated) (Arabidopsis) (UniProt Q9LDI3); assay: two-hybrid; pGBKT7 and pGADT7 fusions co-transformed into yeast AH109; SC/-Trp/-Leu or SC/-Trp/-Leu/-His medium
T1 sequence: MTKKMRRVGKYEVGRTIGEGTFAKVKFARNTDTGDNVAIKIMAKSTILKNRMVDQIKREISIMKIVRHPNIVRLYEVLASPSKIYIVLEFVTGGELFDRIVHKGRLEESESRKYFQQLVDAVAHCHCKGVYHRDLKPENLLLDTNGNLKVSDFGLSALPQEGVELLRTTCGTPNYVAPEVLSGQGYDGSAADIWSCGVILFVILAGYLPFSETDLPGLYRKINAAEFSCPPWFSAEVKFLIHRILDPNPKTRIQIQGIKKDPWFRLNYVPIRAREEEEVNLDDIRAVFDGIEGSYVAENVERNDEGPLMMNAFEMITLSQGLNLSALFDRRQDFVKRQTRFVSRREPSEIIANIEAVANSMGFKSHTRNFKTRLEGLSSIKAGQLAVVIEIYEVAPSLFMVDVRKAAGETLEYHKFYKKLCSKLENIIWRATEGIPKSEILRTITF

[2] = target: T2, pGBKT7-PKS5 (Arabidopsis) (UniProt O22932); assay: as above
T2 sequence: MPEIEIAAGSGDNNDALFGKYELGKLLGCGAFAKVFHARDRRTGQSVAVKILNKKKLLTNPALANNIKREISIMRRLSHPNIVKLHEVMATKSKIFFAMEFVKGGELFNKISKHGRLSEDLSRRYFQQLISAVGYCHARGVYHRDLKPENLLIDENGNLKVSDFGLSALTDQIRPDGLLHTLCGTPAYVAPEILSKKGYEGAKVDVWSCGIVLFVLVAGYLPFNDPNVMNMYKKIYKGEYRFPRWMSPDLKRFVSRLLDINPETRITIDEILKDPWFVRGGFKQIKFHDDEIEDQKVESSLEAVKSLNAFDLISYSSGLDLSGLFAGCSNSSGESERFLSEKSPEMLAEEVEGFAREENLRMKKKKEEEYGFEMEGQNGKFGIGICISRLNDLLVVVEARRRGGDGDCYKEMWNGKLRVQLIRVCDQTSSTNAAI

[3] = target: T3, pGBKT7-PKS5C, C-terminal regulatory domain (amino acids 307–435) (Arabidopsis) (UniProt O22932); assay: as above
T3 sequence: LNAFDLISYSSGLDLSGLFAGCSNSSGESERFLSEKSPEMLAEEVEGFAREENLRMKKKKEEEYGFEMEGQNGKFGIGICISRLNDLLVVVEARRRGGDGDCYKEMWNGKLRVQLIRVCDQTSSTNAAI

[4] = target: T4, pGBKT7-PKS5JD, junction domain (amino acids 281–306) (Arabidopsis) (UniProt O22932); assay: as above
T4 sequence: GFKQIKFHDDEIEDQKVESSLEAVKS

[5] = target: T5, pGBKT7-PKS5N, kinase domain (amino acids 1–280) (Arabidopsis) (UniProt O22932); assay: as above
T5 sequence: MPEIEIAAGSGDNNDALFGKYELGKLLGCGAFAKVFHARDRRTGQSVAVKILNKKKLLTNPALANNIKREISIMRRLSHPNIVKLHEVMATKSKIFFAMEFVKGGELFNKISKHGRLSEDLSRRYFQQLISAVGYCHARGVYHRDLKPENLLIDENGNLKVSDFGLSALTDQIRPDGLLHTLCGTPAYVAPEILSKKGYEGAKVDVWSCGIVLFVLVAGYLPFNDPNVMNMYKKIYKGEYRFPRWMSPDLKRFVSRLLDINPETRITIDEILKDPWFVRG

[6] = target: T6, PKS5 in pCAMBIA-nLuc (Arabidopsis) (UniProt O22932); assay: split reporter; split-luciferase complementation (LUC) imaging, nLuc and cLuc fusions in N. benthamiana leaves, 1 mM luciferin; with or without co-expressed PKS5, PKS5-3, PKS5-4, PKS5^K50N or SCaBP1; with or without 200 mM NaCl for 5-30 min
T6 sequence: T2 sequence

[7] = target: T7, nLuc-SOS2 (Arabidopsis) (UniProt Q9LDI3); assay: as above
T7 sequence: T1 sequence

[8] = target: T8, YFP^C-SOS2 (Arabidopsis) (UniProt Q9LDI3); assay: split reporter; BiFC, YFP^N and YFP^C fusions in N. benthamiana leaves, confocal microscopy
T8 sequence: T1 sequence

binding [1]: binds
binding [2]: binds
binding [3]: no binding
binding [4]: no binding
binding [5]: binds
B1: pGADT7-14-3-3λ (protein, UniProt P48349 1-248)
chain: MAATLGRDQYVYMAKLAEQAERYEEMVQFMEQLVTGATPAEELTVEERNLLSVAYKNVIGSLRAAWRIVSSIEQKEESRKNDEHVSLVKDYRSKVESELSSVCSGILKLLDSHLIPSAGASESKVFYLKMKGDYHRYMAEFKSGDERKTAAEDTMLAYKAAQDIAAADMAPTHPIRLGLALNFSVFYYEILNSSDKACNMAKQAFEEAIAELDTLGEESYKDSTLIMQLLRDNLTLWTSDMQEQMDEA

binding [6]: binds
binding [7]: binds
B2: cLuc-14-3-3λ (protein, UniProt P48349 1-248)
chain: B1 chain

binding [1]: binds
binding [2]: binds
B3: 14-3-3λ^G216A (yeast two-hybrid) (protein, UniProt P48349 1-248)
chain: B1 chain with G216A

binding [6]: binds
binding [7]: binds
B4: 14-3-3λ^G216A (luciferase complementation) (protein, UniProt P48349 1-248)
chain: B1 chain with G216A

binding [2]: binds
B5: pGADT7-SOS2 (protein, UniProt Q9LDI3 1-446)
chain: T1 sequence

binding [8]: binds
B6: YFP^N-PKS5 (protein, UniProt O22932 1-435)
chain: T2 sequence
